PubChem BioAssay AID1794842 (National Center for Advancing Translational Sciences (NCATS), 2023)
Among all 2,800 compounds or so, fewer than 10 were called active. The call rests on the fitted dose curve; in most records, active means well fitted curve in the direction sought with a large enough effect; inconclusive means small, poorly fitted or top-dose-only effect, or another doubt; inactive means no such curve, though single readings can be large or run the other way. The list shows a part of the results.

Each compound was assayed against Metallo-beta-lactamase type 2 (Klebsiella pneumoniae) (UniProt C7C422) (assay: qHTS to identify inhibitors of the New Delhi Metallo-beta-lactamase (NDM): Meropenem screen against the machine-based learning selections.). Conditions: Purified NDM-1, meropenem hydrolysis, absorbance 300 nm; at 38.4 µM (top of the series) unless noted.
Chain of UniProt C7C422 (C7C422 whole entry, looked up): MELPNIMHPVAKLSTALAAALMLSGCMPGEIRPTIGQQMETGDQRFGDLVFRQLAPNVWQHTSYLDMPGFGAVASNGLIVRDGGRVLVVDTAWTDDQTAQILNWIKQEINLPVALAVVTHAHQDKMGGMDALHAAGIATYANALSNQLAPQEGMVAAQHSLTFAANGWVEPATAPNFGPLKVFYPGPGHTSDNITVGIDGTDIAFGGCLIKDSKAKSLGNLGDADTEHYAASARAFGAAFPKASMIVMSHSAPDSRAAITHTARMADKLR
In short: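 NDM-1 (2 nM final) in 50 mM HEPES pH 7.0, 1 uM Zn2SO4, 0.01% Tween20 was preincubated with compounds for >30 min. Nitrocefin (16.7 uM final) was read at 485 nm after 15 min, and meropenem (50 uM final) at 300 nm after 30 min.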
Further: % of control where 0% means no effect.

Activity change, negative = inhibition, inactive:
CN1C[C@@H](F)[C@@H](OCc2nc3ccc(C(F)(F)F)cc3[nH]2)C1 2.24% [at 57.5 µM]
C[C@@H](c1ccccc1)N1C(=O)[C@@H]2CN(C(=O)c3ccco3)CCN2C1=O 3.75% [at 57.5 µM]
CC(C)c1nc2c(c(-c3ccc(O)cc3)n1)CN(C(=O)N(C)C)CC2 3.85%
COc1ncccc1-c1cnc2[nH]cc(CC(=O)Nc3cccnc3)c2c1 0.35% [at 57.5 µM]
O=C(CCC[C@H]1NC[C@@H]2CC1CN(Cc1ccccc1)C2)N1CCOCC1 56.3%
C[C@H](O)c1c(-c2ccc(Cl)cc2)noc1C(=O)N(C)C 0.62% [at 57.5 µM]
COc1ccc(C(=O)N2CC[C@@H](CC(=O)O)[C@@H](CCN3CCCCC3)C2)cc1 3.07% [at 57.5 µM]
COc1cccc(-c2ccccc2NC(=O)C2CCN(Cc3cc(F)ccc3F)CC2)c1 0.222%
Cc1nc2c(c(=O)[nH]1)CCN(C(=O)C1(C)CCc3c(C)c(O)c(C)c(C)c3O1)C2 (centres undefined) -0.427%
O=C(NC[C@H]1OC[C@@H](NC2CCCCC2)[C@@H]1O)C1CCCC1 0.318% [at 57.5 µM]
CN(C)c1ccc(CC(=O)N2CC[C@@](C)(O)[C@@H](O)C2)cc1 2.59%
Nc1nc(C2CC(NC(=O)c3csc4c3CCCC4)C2)cc(=O)[nH]1 (centres undefined) 0.72%
CN(Cc1ccccc1)Cc1cc(C[C@H]2CNCC[C@H]2CC(=O)NCc2cccs2)no1 -1.69%
COc1ccc(CN2C(=O)O[C@@H]3CN(C4CCCCC4)C[C@@H]32)cc1OC 2.5%
CC1(C)C[C@H](NC(=O)c2ccccc2)[C@@]2(CCC(=O)NCCN3CCOCC3)CC[C@](C)(O)C[C@@H]12 0.402%
CCC(C)NC(=O)CCN(CC)C(=O)c1cc(C)oc1C (centres undefined) -3.84%
COc1cc(=O)n2c(c1C(=O)Nc1ccc(F)cc1F)CCCC2 -2.11%
CC(NCc1cn(CCC(N)=O)c2ccccc12)c1ccccc1-n1cccn1 (centres undefined) -0.612%
Cn1cc(C(=O)N2CCCC(c3nnnn3C)C2)cn1 (centres undefined) 1.2%
CO[C@@H]1CO[C@H]2[C@@H]1OC[C@@H]2NS(C)(=O)=O 3.78% [at 76.7 µM]
COc1ccc(Cl)cc1-c1ccc2c(c1)C(=O)N1CC[C@H](NC(=O)C3CCCC3)[C@H]1C(=O)N2 1.26%
O=c1c2nc(-c3ccc(O)c(F)c3)ccc2ncn1-c1ccccc1 17.4% [at 57.5 µM]
O=C(Cc1c[nH]c2ncc(-c3cccnc3)cc12)NCc1cccc(F)c1 2.57% [at 57.5 µM]
c1ccc(Nc2cc3c(cn2)CN(Cc2ccccn2)CCN3)cc1 29.1% [at 57.5 µM]
CC(C)NC(=O)c1ccnc(-c2nnc3ccc(Nc4ccccc4)nn23)c1 1.69% [at 57.5 µM]
CC(CN1CCCC1)CN(C)c1nc(CCN)nc2ccccc12 (centres undefined) 18.8%
COc1ccc(CNC[C@H]2Cn3ccnc3CO2)cn1 0.89% [at 76.7 µM]
COc1ccc(C(=O)NCc2nnc3ccc(-c4ccc(C)c(C)c4)nn23)cc1 5.79%
O=C(Cc1cccc(Cl)c1)N1CCCC(c2nn(-c3ccccc3)c(=O)[nH]2)C1 (centres undefined) -0.0731%
CCn1cc(S(=O)(=O)N2CCCCC2c2nc(-c3ccncc3)n[nH]2)cn1 (centres undefined) 1.17%
COCc1nc(C2CC(N)C2)cc(N2CCC(Cn3cccn3)CC2)n1 (centres undefined) 64.5%
CN(C)c1ccc(-c2nnc([C@H]3CCN(Cc4ccco4)C3)o2)cc1 13.4% [at 57.5 µM]
Oc1ccccc1CN1CCC(O)(c2csc(CN3CCOCC3)n2)CC1 0.483% [at 57.5 µM]
COCCNC(=O)c1ccc2c(c1)N(C)C(CC(=O)N1CCC(C)CC1)CO2 (centres undefined) 0.152%
CN(C)C[C@H]1O[C@@H](CO)[C@@H](O)[C@H]1N1CCN(c2ccc(F)cc2)CC1 43.7%
COC(=O)c1ccc2nc(C[C@@H]3C[C@@H](C(C)C)[C@H](CNC(=O)CC4(CC(=O)O)CCCC4)C=C3C)[nH]c2c1 49%
O=S(=O)(NC[C@H]1O[C@@H](CO)[C@@H](O)[C@H]1N1CCN(c2ccc(F)cc2)CC1)c1ccc(F)cc1 54.3%
CCN(CC)Cc1nc(C2(O)CCN(C(=O)COc3ccccc3)CC2)cs1 -1.77% [at 57.5 µM]
Cc1nn(-c2ccc(C(F)(F)F)cc2)c(C)c1[C@@H]1C=C[C@@H](NC(=O)C2CCCCC2)C1 1.38% [at 57.5 µM]
Cc1nc([C@@H]2CN(C3CCN(CCc4ccccc4)CC3)C[C@H]2C(N)=O)n[nH]1 1.53%
Clc1ccccc1C1(c2ccnc(NCCn3cccn3)n2)CCNCC1 48.6%
COC(=O)[C@@H](C)NC(=O)[C@H]1CN(C(=O)c2cccnc2)CCN1S(C)(=O)=O 0.0432% [at 57.5 µM]
COc1ccc(OC)c(CN2CCC3(CC2)Nc2ccccc2NC3=O)c1 -3.33%
CCCc1ncncc1C(=O)N1CCCC2(CC1)CNC(=O)O2 (centres undefined) 1.69%
COC(=O)[C@@H]1Cc2ncn(Cc3ccccc3)c2CN1S(=O)(=O)c1cccs1 1.28% [at 57.5 µM]
CC1=C[C@@H](CC#N)[C@H](C(C)C)C[C@H]1CC(=O)NC1CCCCC1 1.25% [at 57.5 µM]
O=C(c1cccc2[nH]ccc12)N1CCC([C@@H]2CNC[C@H]2CO)CC1 16.5%
O=C1OC[C@@H]2CCN(Cc3ccc(Cl)cc3)Cc3ccc(F)cc3N12 0.972% [at 57.5 µM]
CCn1cnnc1CC1CCN(C(=O)NC)C1 (centres undefined) -0.829%
O=C(c1ccc(C2CCCN2)s1)N1CCc2nc[nH]c2C1 (centres undefined) 41.3%
COc1ccc(-c2nnc3n2CCN(C(=O)c2ccc(C(F)(F)F)cc2)C3)cc1 -1.65%
CC1(C)[C@H](Cc2cc(CN3CCN(c4ccccc4)CC3)on2)C[C@@H]1NC(=O)Nc1ccc(F)cc1 -0.163%
O=C(C1CCCC1)N1CC2CC(C1)[C@H]1CCCC(=O)N1C2 (some centres undefined) 18.4%
Cn1ccc2c(C(=O)NCCC(N)=O)nc(-c3cccc(CO)c3)cc21 9.01% [at 57.5 µM]
COc1ccc(CN2CCOC[C@H]2c2ncc(-c3cccnc3)[nH]2)cc1 6.05% [at 57.5 µM]
CN1[C@@H](CCC(=O)NCc2cccnc2)CNC(=O)[C@@H]2[C@H]1CCN2Cc1nc2ccccc2n1C 14.4%
O=C(c1cnc2c(O)cccn2c1=O)N1CCC2(CC1)OCCCC2O (centres undefined) 37.7%
O=C(CCc1cc(=O)[nH]o1)N[C@H](c1ccccn1)C1CC(O)C1 (some centres undefined) -1.48%
Cc1ccccc1NC(=O)Nc1ccnn1C1CCN(C(=O)[C@@H](N)CO)CC1 31.8%
CC[C@H]1CN(C(=O)c2ccc(F)cc2)CC[C@H]1CC(=O)NC1CCCC1 -0.765% [at 57.5 µM]
Cc1nc2c(NC3CCN(C(=O)c4cnccn4)CC3)cccn2n1 6.5%
CCOCCN1C(=O)COC[C@@H]1[C@H](O)c1ccc(NC(=O)c2ccccc2)cc1 1.7% [at 57.5 µM]
C[C@@H]1C(=O)O[C@H]2[C@H]1CC[C@@]1(C)Cc3sc(NS(=O)(=O)c4ccc5c(c4)CN(C(=O)C(F)(F)F)CC5)nc3[C@@H](C)[C@H]21 -3.52%
O=C(c1cc2sccc2[nH]1)N1CCCn2nc(C(O)CO)cc2C1 (centres undefined) 16.9%
O=C(O)C[C@@H]1CCN(C(=O)C2CCC2)C[C@@H]1CCN1CCC(n2c(=O)[nH]c3ccccc32)CC1 1.43%
COC(=O)N1CCn2c(nnc2-c2ccc(OC)cc2)C1 0.782% [at 57.5 µM]
COc1cc(=O)n2c(c1C(=O)NC1CCCCCC1)CCCC2 -3.47%
COc1ccccc1CN1Cc2[nH]cnc2C[C@H]1c1nc(-c2cccc(C)c2)no1 66.5% [at 57.5 µM]
O=C(O)c1cc(-c2ccncc2)cc(S(=O)(=O)N2CCCCCC2)c1 1.09%
CN(C)C1CCN(c2nc(-c3ccncc3)nc3c2CNC3)C1 (centres undefined) 15.6%
O=C1Cc2c(-c3ccc4ccccc4c3)n[nH]c2CN1CCc1ccncc1 7.56% [at 57.5 µM]
COc1ccc(-c2ccc3c(c2)C(=O)N2CC[C@H](NC(=O)c4cccs4)[C@H]2C(=O)N3)c(OC)c1 7.27%
Cc1sc2ccn(C)c(=O)c2c1C(=O)NCc1ccc(OC(C)C)cc1 3.58%
CC(=O)N1CC[C@H](c2nc3cc(C)ccc3o2)C1 -0.0122% [at 76.7 µM]
O=C(Cc1c[nH]c2ncc(-c3ccccc3)cc12)NCC1CCOCC1 0.256% [at 57.5 µM]
O=C(c1ccc2ncccc2c1)N1CCC2(CC1)Nc1ccccc1NC2=O -2.05%
Cn1nc(CC2CCN(C(=O)c3cnon3)CC2)n(-c2ccccc2)c1=O 1.22%
Cc1oc(C(O)c2ccccc2F)nc1C(=O)Nc1ccc(C(N)=O)cc1 (centres undefined) 10.8% [at 57.5 µM]
C[C@@H](NC(=O)c1cccn1C)c1onc(-c2ccc(F)cc2)c1C(=O)O 14.6% [at 57.5 µM]
